Reference: PMC4336329 (PLoS ONE, 2015)
Hit rate of the full screen: of about 310,000 compounds, about 14,000 (4.5%) showed an effect of 50% or more. The effect is printed as a negative number. This is one part of the list.

molecular target: human ether-à-go-go-related gene (hERG) potassium channel (human, UniProt Q12809); assay: primary screen, population patch clamp on CHO cells stably expressing hERG
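Further: peak tail current of the secondary pulse compared with the same well before compound.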

Chain of human ether-à-go-go-related gene (hERG) potassium channel (Q12809 whole entry, looked up): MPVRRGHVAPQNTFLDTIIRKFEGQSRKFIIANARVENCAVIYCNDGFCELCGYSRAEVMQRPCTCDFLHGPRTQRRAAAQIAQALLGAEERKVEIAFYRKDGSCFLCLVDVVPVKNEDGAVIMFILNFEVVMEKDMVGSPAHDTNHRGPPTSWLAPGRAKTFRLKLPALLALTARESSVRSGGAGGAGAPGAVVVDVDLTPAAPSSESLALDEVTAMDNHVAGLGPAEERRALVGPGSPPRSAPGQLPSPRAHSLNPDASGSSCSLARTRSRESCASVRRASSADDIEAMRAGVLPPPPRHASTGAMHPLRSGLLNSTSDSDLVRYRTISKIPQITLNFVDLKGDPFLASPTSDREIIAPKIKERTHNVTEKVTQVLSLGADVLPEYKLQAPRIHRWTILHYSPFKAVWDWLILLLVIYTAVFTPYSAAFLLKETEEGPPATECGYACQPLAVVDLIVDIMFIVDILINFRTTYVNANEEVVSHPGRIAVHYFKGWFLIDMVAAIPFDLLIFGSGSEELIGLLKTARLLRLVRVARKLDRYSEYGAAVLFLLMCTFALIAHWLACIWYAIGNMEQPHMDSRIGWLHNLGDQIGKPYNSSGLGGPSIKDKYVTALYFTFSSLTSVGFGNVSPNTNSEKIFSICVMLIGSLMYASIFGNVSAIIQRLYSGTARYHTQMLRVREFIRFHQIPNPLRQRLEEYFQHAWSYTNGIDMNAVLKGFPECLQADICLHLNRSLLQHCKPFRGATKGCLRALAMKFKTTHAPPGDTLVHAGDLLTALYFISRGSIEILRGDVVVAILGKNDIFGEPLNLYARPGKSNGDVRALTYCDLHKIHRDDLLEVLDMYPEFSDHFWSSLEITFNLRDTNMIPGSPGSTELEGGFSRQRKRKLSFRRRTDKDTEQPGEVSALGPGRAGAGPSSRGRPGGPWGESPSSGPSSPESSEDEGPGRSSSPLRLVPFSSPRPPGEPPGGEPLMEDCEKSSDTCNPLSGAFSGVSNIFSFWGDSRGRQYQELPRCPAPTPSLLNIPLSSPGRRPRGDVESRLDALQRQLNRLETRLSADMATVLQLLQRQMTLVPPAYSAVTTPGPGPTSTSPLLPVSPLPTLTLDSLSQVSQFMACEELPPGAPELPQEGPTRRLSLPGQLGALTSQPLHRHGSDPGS

| Structure (SMILES) | hERG current change (%, negative = inhibition) at 10uM |
| --- | --- |
| Cl.O=C(c1ccco1)N1CCN(CCOCCOc2cccc3ccccc23)CC1 | -62.5% |
| CCc1c(C)nc2ncnn2c1N1CCCC(C(=O)NCc2ccco2)C1 (stereo not drawn) | -30.1% |
| Cn1ccnc1P(=S)(c1nccn1C)N1CCOCC1 | 7.32% |
| CC1CCN(c2nc(N3CCCCC3)nc(N3CCCCC3)n2)CC1 | 9.57% |
| Cc1cccc(C)c1OCC(O)CNC(C)c1ccccc1.Cl (stereo not drawn) | -13.7% |
| CC(C)(CNC(=O)Cc1ccc(Cl)cc1Cl)N1CCOCC1 | 5.05% |
| COc1ccc(NC(=O)CN(C)C(=O)C(C)N2C(=O)c3ccccc3C2=O)cc1 (stereo not drawn) | -8.54% |
| COc1ccccc1OCCNC(=O)CCNC(=O)c1ccccc1Cl | 16.5% |
| O=C(CCCn1c(=O)[nH]c2ccsc2c1=O)NCc1cccs1 | 4.11% |
| Cc1ccc(O)c(CO)n1 | 4.86% |
| O=C(COC(=O)c1c2c(nc3ccccc13)CCCC2)c1cccs1 | 1.14% |
| COc1ccc(N(CC(=O)Nc2ccc(OC)c(Cl)c2)S(=O)(=O)c2c(C)noc2C)cc1 | -1.44% |
| Oc1ccc(N=Nc2ccccc2-c2nn[nH]n2)c(O)c1 | -4.56% |
| Cc1ccc(-c2cc(C(=O)N3CC(C)CC(C)C3)c3ccccc3n2)o1 (stereo not drawn) | -16.6% |
| CCOc1ccc(N2CC(C(=O)Nc3cccc(S(=O)(=O)NC4=NCCC4)c3)CC2=O)cc1 (stereo not drawn) | -3.05% |
| CC(=O)N1c2c(cc(Br)cc2S(=O)(=O)NCc2ccccc2)CC1C (stereo not drawn) | -35.5% |
| O=C(Nc1ccc(Nc2ccccc2)cc1)C1CC1 | -6.15% |
| COc1ccccc1-n1c(-c2ccc(NS(C)(=O)=O)cc2)n[nH]c1=S | 19.1% |
| CSC1=N/C(=C\c2ccccc2Cl)C(=O)N1N(C)C | -0.445% |

| Structure (SMILES) | hERG current change (%, negative = inhibition) at 10uM |
| --- | --- |
| Cn1c(CN2CCN(c3ccc(Cl)cc3)CC2)nc2ccccc21 | -14.3% |
| CN(/N=C/c1cc(Cl)ccc1O)C1=NS(=O)(=O)c2ccccc21 | 23.2% |
| CCOc1ccccc1-c1cc(C(=O)N/N=C/c2ccc(O)c(OC)c2)c2ccccc2n1 | -31.1% |
| CC1CCCCC1NC(=O)CNC(=O)c1ccco1 (stereo not drawn) | 3.15% |
| Nc1c(C(=O)NCc2ccc3c(c2)OCO3)nnn1-c1ccc(OC(F)(F)F)cc1 | -0.473% |
| COCCCNC(=O)C(=O)NCC1CCCN1S(=O)(=O)c1cccs1 (stereo not drawn) | -9.53% |
| COc1ccc(-c2onc(C)c2-c2ccc3c(c2)OCCO3)c(O)c1 | -17.4% |
| Cc1cccc(NC(=O)COc2nsnc2N2CCOCC2)c1 | -0.66% |
| COc1cc(NC(=O)c2cccc(C)c2)c(OC)cc1NC(=O)CN1CCCCC1 | -19.7% |
| CC(=O)Nc1ccc(S(=O)(=O)Nc2ccc(S(=O)(=O)N3CCCC3)cc2)cc1 | 3.62% |
| CC(=O)Nc1ccc(SCC(=O)N(CCC#N)c2cc(C)cc(C)c2)cc1 | -4.49% |
| CC1CCCCC1NC(=O)Cc1ccc(S(=O)(=O)N2CCOCC2)s1 (stereo not drawn) | -22.3% |
| CCN(CCNCC(O)COc1ccccc1C(C)C)c1cccc(C)c1.O=C(O)C(=O)O (stereo not drawn) | -45.4% |
| CC(=O)Nc1ccc(-c2csc(NCCc3ccccc3)n2)cc1 | 14.8% |
| CCOC(=O)c1c(C)c(C(=O)NCc2ccccc2OC)c(C)n1C | -13.8% |
| CC(C)(C)c1cc(CN(CCO)CCO)c(O)c(C(C)(C)C)c1 | -42.3% |
| Cc1ccc(OCC(=O)Oc2c(C)cccc2C)cc1C | 14.9% |
| CC(C)(C)C(=O)NC1CC2CCCC(C1)N2C(=O)Nc1ccccc1F (stereo not drawn) | 22.5% |
| O=C(NC(=S)NCCCN1CCOCC1)c1ccc(Br)cc1 | -42.9% |

| Structure (SMILES) | hERG current change (%, negative = inhibition) at 10uM |
| --- | --- |
| Cc1nn(-c2ccccc2)c(Cl)c1C(=O)N(C)c1nc(-c2ccc(F)cc2)cs1 | 15.9% |
| Cc1ccc(C(=O)OCC(=O)NCC(F)(F)F)cc1C | 5.6% |
| Cl.O=C(NC1CCN(Cc2ccccc2)CC1)c1cccc(OC(F)F)c1 | -74.1% |
| CCCCn1nc(C(=O)O)ccc1=O | 20.4% |
| COc1ccccc1CNC(=O)C(C)n1cccc1C(=O)c1ccccc1 (stereo not drawn) | 2.18% |
| COc1ccc(-n2c(C)cc(C)c(C(C)=O)c2=S)cc1 | -2.39% |
| CC[C@@]12C(=O)N(c3cccc(Cl)c3)C(=O)N1[C@H](c1ccc(Br)cc1)[C@@H]1C(=O)N(C(C)(C)C)C(=O)[C@@H]12 | -6.81% |
| CCOc1ccccc1N1CCN(C(=O)NC(C)c2ccc(F)c(F)c2)CC1 (stereo not drawn) | 11.9% |
| CCOC(=O)NN1C(=O)c2ccccc2NC1c1ccc(OC)cc1 (stereo not drawn) | 9.73% |
| O=C(Nc1ccc2oc(=O)ccc2c1)c1ccc(-c2ccc(Cl)cc2)o1 | 3.37% |
| COc1ccc(S(=O)(=O)N(CC(=O)Nc2cc(C)on2)Cc2ccccc2)cc1 | 16.8% |
| Cc1cc(NC(=O)C(C)C)ncc1NC(=O)CCc1ccccc1 | -3.36% |
| COc1ccc(OCCOC(=O)c2[nH]c(C)c(C(C)=O)c2C)cc1 | 10.2% |
| O=c1cc(-c2ccc(Cl)cc2)[nH][nH]1 | -1.64% |
| COc1ccc(C[C@@H]2CN3C(=NC[C@@H]3C)N2C[C@H](C)NC(=O)CCC2CCCCC2)cc1 | -67.4% |
| Cn1c(C(=O)N2CCCc3ccccc32)cc2sccc21 | -14.8% |
| COc1ccc2[nH]cc(/C=C/c3cc[n+](C)cc3)c2c1.[I-] | 14.9% |
| CN1C(=O)N(C)C(=O)C2(Cc3c(nc4ccccn4c3=O)N3CCc4ccccc4C32)C1=O (stereo not drawn) | -6.12% |
| CCC(=O)Nc1ccc(S(=O)(=O)Nc2c(NC)c3ccccc3oc2=O)cc1 | 22.4% |
